Data as given in PubChem BioAssay (NCI).
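In this assay, cells in 96-well plates receive the compound at five concentrations for 48 hours. Endpoints are linearly interpolated between the surrounding concentrations. Here, GI50 denotes the concentration required for 50% inhibition of growth. Definition used: TGI = concentration required for complete inhibition of growth.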

System: NCI-H322M lung
Test: DTP human tumour cell line panel, 48 h

Point of comparison: `Cc1ccccc1[C@H]1C(C(=O)c2ccc(Cl)cc2)C2(N[C@@H]1c1ccccc1)C(=O)Nc1ccc(Br)cc12` (stereo partly specified), GI50 4.59 µM. Against it:
- COc1cc(/C=C/C(=O)c2nnn(-c3ccc(Cl)cc3)c2C)cc(OC)c1OC — higher, > 100 µM
- Cc1ccc(NC(=O)N/N=C/c2c[nH]c3ccccc23)c(C)c1 — 6-fold lower, 0.771 µM

Point of comparison: `Cc1ccccc1[C@H]1C(C(=O)c2ccc(Cl)cc2)C2(N[C@@H]1c1ccccc1)C(=O)Nc1ccc(Br)cc12` (stereo partly specified), TGI 9.66 µM. Against it:
- COc1cc(/C=C/C(=O)c2nnn(-c3ccc(Cl)cc3)c2C)cc(OC)c1OC — higher, > 100 µM
- Cc1ccc(NC(=O)N/N=C/c2c[nH]c3ccccc23)c(C)c1 — higher, > 100 µM
